# PubChem BioAssay (NCATS)
# The shares of active, inactive and inconclusive entries below differ from those in the screen. Potencies of inconclusive entries are doubtful fits and often do not repeat. Active and inactive are the calls of the source. Calls follow the shape of the dose curve; as a rule, active = well fitted curve in the direction sought with a large enough effect; inconclusive = small, poorly fitted or top-dose-only effect, or another doubt; inactive = no such curve, though single readings can be large; an effect the other way counts as inactive or inconclusive.
# What was measured:
# [1] = qHTS to identify inhibitors of the type 1 interferon - major histocompatibility complex class I in skeletal muscle: primary screen against the NCATS Pharmaceutical Collection (AID 1347407); details: human skeletal muscle cells, IFN-b-induced MHC-I HiBiT luminescence, 24 h; activity change, negative = inhibition: at 45.9 µM (top of the series);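 also: luminescence of HiBiT knocked into endogenous HLA-B as interferon-induced MHC class I level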
# Method in brief: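 Immortalized human myoblasts (C25cl48) with HiBiT knocked into endogenous HLA-B*08:01 were stimulated with 4.0 ng/ml IFN-beta and treated with compounds ([…] top 46 uM) for 24 hrs at 37 C. HiBiT lytic luminescence read.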
# [2] = qHTS to identify inhibitors of the type 1 interferon - major histocompatibility complex class I in skeletal muscle: primary screen against the NCATS LOPAC collection (AID 1347405);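 also: lytic HiBiT luminescence reporting HLA-B protein level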
# Method in brief: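 After 24 h at 37 C with compounds (7-point, 1:4.3 dilutions, 46 uM top final) plus 4 ng/ml IFN-beta, luminescence from lytic HiBiT detection was measured. HLA-B*08:01 in C25cl48 myoblasts carried an endogenous C-terminal HiBiT tag; medium lacked dexamethasone.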
# [3] = biological target: Single-stranded DNA cytosine deaminase (Homo sapiens) (UniProt Q9GZX7); test: Validation qHTS assay for inhibitors of Activation Induced Cytidine Deaminase (AID): AID signal (AID 1347429)
# Method in brief: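 Compounds (final up to 114 uM) preincubated with AID plus UDG; 250 nM DJC20/DJC23 substrate mix (4x stock) added, 4 hr at room temperature, then NaOH, 30 min. Read 1 fluorescence at 540 nm excitation, 590 nm emission.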
# [4] = Primary qHTS for inhibitors of La Crosse Virus (LACV) - induced cell death in SH-SY5Y cells (AID 1508616)
# Method in brief: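 Rescue of virus-induced death was read as ATPLite luminescence after 6 days at 37C, scaled between DMSO wells with LACV and without virus. Cells were SH-SY5Y, 6000/well, infected at 0.01 MOI after compound addition.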
# [5] = Validation qHTS assay for inhibitors of Activation Induced Cytidine Deaminase (AID): UDG Counterscreen signal (AID 1347427); details: biochemical UDG counterscreen, fluorescence signal
# Method in brief: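 Fluorescence at 560 nm excitation, 665 nm emission reports UDG signal after 250 mM NaOH (2x) addition and 30 min. Enzymes (AID 1 uM, UDG 2 U/mL, at 4/3x) preincubated 10 min with compound, then 4 h with 4x 250 nM DJC20/DJC23 substrate at room temperature.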
# [6] = qHTS to identify inhibitors of the type 1 interferon - major histocompatibility complex class I in skeletal muscle: primary screen against the NCATS Mechanism Interrogation Plate v5.0 (MIPE) Libary (AID 1347411); details: iHSKM cells + IFN-b, HiBiT-tagged MHC-I luminescence, 24 h; activity change, negative = inhibition: at 45.8 µM (top of the series); also: nearly all actives have a fitted effect of over 65% in size
# Method in brief: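 Luminescence from CRISPR HiBit-tagged endogenous HLA-B in human myoblasts reported MHC class I level after 24 h of IFN-beta (4 ng/ml) plus compound. Compounds ran as 11-point 1:3 series, top 46 uM final.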
# [7] = biological target: Protein phosphatase 1D (Homo sapiens) (UniProt O15297); test: Rhodamine-PBP qHTS Assay for Modulators of WT P53-Induced Phosphatase 1 (WIP1) (AID 1347425)
# Method in brief: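 The read-out is the change in Rhodamine-PBP fluorescence (f1 - f0, ex 525/em 598 nm) as Pi is released, read each minute for 11 min. Final reaction: 5 nM WIP1, 10 uM phosphopeptide VEPPL-pS-QETFS, 10 uM Rh-PBP, 50 mM Tris-HCl pH 7.5, 30 mM MgCl2. Compound was preincubated with enzyme for 1 hour at room temperature.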
# [8] = biological target: Protein phosphatase 1D (Homo sapiens) (UniProt O15297); test: RapidFire Mass Spectrometry qHTS Assay for Modulators of WT P53-Induced Phosphatase 1 (WIP1) (AID 1347424);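 also: amount of dephosphorylated VEPPL-S-QETFS peptide product formed by WIP1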
# Method in brief: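 Mass-spectrometric measurement of dephosphorylated peptide after a 5 min room-temperature reaction of 10 nM WIP1 with 2 uM phosphopeptide, following 1 h compound preincubation in 30 mM MgCl2 buffer.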
# Potency is read from the fitted curve at half-maximal effect; tags tell the direction and shape of the fitted curve.
# Chain of UniProt O15297 (O15297 whole entry, looked up): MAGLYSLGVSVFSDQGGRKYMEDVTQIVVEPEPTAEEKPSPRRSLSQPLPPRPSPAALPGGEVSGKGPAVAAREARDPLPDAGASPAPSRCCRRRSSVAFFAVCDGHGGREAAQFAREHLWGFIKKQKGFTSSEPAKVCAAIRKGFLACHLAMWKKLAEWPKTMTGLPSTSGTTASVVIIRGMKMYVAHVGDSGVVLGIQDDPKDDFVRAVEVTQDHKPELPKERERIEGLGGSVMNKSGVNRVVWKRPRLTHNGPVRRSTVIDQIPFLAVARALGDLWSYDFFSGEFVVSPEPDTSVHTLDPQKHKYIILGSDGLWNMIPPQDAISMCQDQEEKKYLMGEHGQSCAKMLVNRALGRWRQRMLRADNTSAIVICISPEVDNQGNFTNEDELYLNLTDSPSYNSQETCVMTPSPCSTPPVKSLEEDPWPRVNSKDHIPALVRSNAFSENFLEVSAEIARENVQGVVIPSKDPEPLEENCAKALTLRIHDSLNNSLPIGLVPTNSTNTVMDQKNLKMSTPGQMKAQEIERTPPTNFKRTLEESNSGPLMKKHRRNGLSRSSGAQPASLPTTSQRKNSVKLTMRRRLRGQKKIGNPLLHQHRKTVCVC
# Chain of UniProt Q9GZX7 (Q9GZX7 whole entry, looked up): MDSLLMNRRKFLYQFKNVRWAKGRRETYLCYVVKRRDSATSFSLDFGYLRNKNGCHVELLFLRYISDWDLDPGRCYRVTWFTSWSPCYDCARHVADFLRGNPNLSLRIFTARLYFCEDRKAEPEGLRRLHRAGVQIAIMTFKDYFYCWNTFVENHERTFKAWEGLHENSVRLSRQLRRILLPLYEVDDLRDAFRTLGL
smiles,measurement,setting,value
CC(=O)CC(c1ccccc1)c1c(O)c2ccccc2oc1=O (configuration not stated),Potency,[1],"inconclusive: 21 µM [inhibitor, single point]"
c1cnc2c(c1)ccc1cccnc12,Potency,[2],"inconclusive: 11.2 µM [inhibitor, partial curve, poor fit]"
same,Potency,[3],"inconclusive: 44.7 µM [inhibitor, partial curve]"
same,Potency,[4],"inconclusive: 6.31 µM [inhibitor, single point]"
O=c1[nH]c2ccccc2n1CCCN1CCN(C(c2ccccc2)c2ccccc2)CC1,Potency,[1],"inconclusive: 23.6 µM [inhibitor, single point]"
CC(=O)SCC(CC(=O)c1ccc(C)cc1)C(=O)O (configuration not stated),Potency,[1],inactive
Cc1c(Nc2ncccc2C(=O)O)cccc1C(F)(F)F,Potency,[1],"inconclusive: 11.8 µM [inhibitor, partial curve]"
CC(C)(C)c1ccc(S(=O)(=O)/C=C/C#N)cc1,Potency,[2],active: 7.08 µM
same,Potency,[4],"inconclusive: 1.12 µM [inhibitor, partial curve, poor fit]"
C[C@H](Cc1ccc(O)c(O)c1)[C@@H](C)Cc1ccc(O)c(O)c1,Potency,[2],inactive
same,Potency,[5],"inconclusive: 44.7 µM [inhibitor, partial curve]"
same,Potency,[4],active: 1 µM
COc1ccc2cc([C@H](C)C(=O)O)ccc2c1,Potency,[1],"inconclusive: 26.4 µM [inhibitor, single point]"
CC(NCCC(c1ccccc1)c1ccccc1)c1ccccc1 (configuration not stated),Potency,[1],"inconclusive: 23.6 µM [inhibitor, single point]"
O=c1cc(-c2ccc(O)cc2)oc2cc(O)cc(O)c12,Potency,[2],"inconclusive: 25.1 µM [inhibitor, partial curve]"
same,Potency,[6],"inconclusive: 13.1 µM [inhibitor, partial curve, poor fit]"
O=C1C(SCCO)=C(SCCO)C(=O)c2ccccc21,Potency,[2],active: 10 µM
same,Potency,[3],active: 10 µM
CCCC(=O)O[C@]1(C(=O)CCl)[C@@H](C)C[C@H]2[C@@H]3CCC4=CC(=O)C=C[C@]4(C)[C@@]3(F)C(=O)C[C@@]21C,Potency,[1],inactive
CC1(C)CCC2=C(O1)c1ccccc1C(=O)C2=O,Potency,[2],"inconclusive: 35.5 µM [inhibitor, single point]"
same,Potency,[6],"inconclusive: 5.23 µM [inhibitor, full curve, poor fit]"
same,Potency,[5],"inconclusive: 10 µM [inhibitor, full curve]"
same,Potency,[3],active: 7.08 µM
O=[N+]([O-])c1ccc2c(c1)S(=O)(=O)C=C2,Potency,[2],"inconclusive: 3.55 µM [inhibitor, full curve, poor fit]"
same,Potency,[4],"inconclusive: 2.51 µM [inhibitor, partial curve, poor fit]"
CN(C)c1ccc(N=NS(=O)(=O)O)cc1,Potency,[1],"inconclusive: 40.7 µM [inhibitor, single point]"
CC(C)C(=O)Nc1ccc([N+](=O)[O-])c(C(F)(F)F)c1,Potency,[1],"inconclusive: 21 µM [inhibitor, partial curve, poor fit]"
CC(C)(C)NC[C@H](O)COc1cccc2c1CCCC2=O,Potency,[1],inactive
O=c1c(O)c(-c2ccc(O)c(O)c2)oc2cc(O)cc(O)c12,Potency,[2],"inconclusive: 28.2 µM [inhibitor, single point]"
same,Potency,[7],"inconclusive: 15.8 µM [inhibitor, partial curve, poor fit]"
CCc1ccc(/C=C2/SC(=S)NC2=O)cc1,Potency,[2],inactive
same,Potency,[6],"inconclusive: 16.5 µM [inhibitor, partial curve]"
CN1CCC(=C2c3ccccc3CCc3sccc32)CC1,Potency,[1],inactive
O=C(Nc1ccc(F)c(C(F)(F)F)c1)Nc1nnc(-c2ccncc2)s1,Potency,[6],inactive
CC[C@]1(O)C[C@H]2CN(CCc3c([nH]c4ccccc34)[C@@](C(=O)OC)(c3cc4c(cc3OC)N(C=O)[C@H]3[C@@](O)(C(=O)OC)[C@H](OC(C)=O)[C@]5(CC)C=CCN6CC[C@]43[C@@H]65)C2)C1,Potency,[1],"inconclusive: 1.33 µM [inhibitor, full curve, poor fit]"
same,Potency,[6],"inconclusive: 0.186 µM [inhibitor, full curve]"
CN(C)c1ccc2nc3ccc(=[N+](C)C)cc-3sc2c1,Potency,[1],"inconclusive: 33.3 µM [inhibitor, single point]"
same,Potency,[6],active: 18.6 µM
same,Potency,[8],"inconclusive: 15.8 µM [inhibitor, partial curve, poor fit]"
same,Potency,[7],"inconclusive: 28.2 µM [inhibitor, single point]"
CN(C)c1ccc(C(=C2C=CC(=[N+](C)C)C=C2)c2ccccc2)cc1,Potency,[1],"inconclusive: 0.0592 µM [inhibitor, full curve, poor fit]"
same,Potency,[7],"inconclusive: 39.8 µM [inhibitor, single point]"
